Consider 45 sequences from the supplement of paper PMC11417369.

± gives the standard deviation of the averaged measurements. Some of the results follow.

The subject of the experiment is PfAP2-LT AP2 domain (GST-tagged). The experiment is described as follows: gcPBM binding intensity (ln(normalized median fluorescence intensity)); higher = stronger DNA binding. In a few lines:
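The binding buffer was 1× PBS containing 1% milk, 0.2 mg/ml BSA, 0.5% salmon testes DNA and 0.03% Triton X-100. In it, GST-tagged P. falciparum DNA-binding domains expressed in E. coli were applied for 1 h to an Agilent 4 × 180k array of primer-extended double-stranded 36-bp intergenic genomic probes plus negative controls. Binding intensity, read with Alexa488 anti-GST antibody and a 488 nm scan, is the highest Masliner-normalised natural-log median intensity across replicate spots of either probe orientation.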
Consider “TAAGTTTTGTTCTTTTGTACATATAAGTATAGATCG [XGTACX_site4735]”, for which the “gcPBM binding intensity (ln)” value came out at 8.6 ± 0.46.
For “GTAGTGGTTGAATATACACACATATATAAATAAATA [CACACA_site7282]”, the “gcPBM binding intensity (ln)” value is 9.12 ± 0.4.
Regarding “GTTTTCATCCAAAAAAGTACATTTATTTTTATACGA [XGTACX_site1039]”, the “gcPBM binding intensity (ln)” value came to 8.49 ± 0.5.
Take “ATGTATGAATTACATAGTACATAAGAAAAAATGAAG [XGTACX_site5942]”: the “gcPBM binding intensity (ln)” value turned out to be 9.05 ± 0.42.
In the case of “GGAAAATCTTTATAATGTACATTATGATTATATAAT [XGTACX_site6256]” it was 8.77 ± 0.35.
In the case of “AAATATAAAGTGCACACACACAAAAAAAGAAAAAAA [CACACA_site6452]” it was 9.33 ± 0.31.
With “TTAACTTAAGGAGAGTGTACAAATAATAAAATATCT [XGTACX_site4118]”, the “gcPBM binding intensity (ln)” value was 8.82 ± 0.45.
In the case of “ATTATTACATTTTTATGTACATATCAAATTTATACA [XGTACX_site7332]”, the “gcPBM binding intensity (ln)” value amounted to 8.73 ± 0.47.
“TTAAAATATGAATAATGTACAAGAAATTTTATTAAT [XGTACX_site6314]”: the “gcPBM binding intensity (ln)” value is 8.52 ± 0.45.
In the case of “TCACTTAATATTTAATGTACATAAGGTTCTTGTGCC [XGTACX_site1822]” it was 8.66 ± 0.47; in that of TATAAATTAAAATGTGTGCACTAAATTGAAATAGAA, 9.02 ± 0.42; in that of “ATATATATATATAATAGTACATATATTTTTATTGGT [XGTACX_site711]”, 8.8 ± 0.29.
Take “ATATTTTTTACAAATTGTACATTTTTACAATTATTA [XGTACX_site7496]”: the “gcPBM binding intensity (ln)” value was 8.76 ± 0.47.
For the sequence “TAACCTAAAATAACTACACACACATAAAAAAAAAAA [CACACA_site8807]”, the “gcPBM binding intensity (ln)” value amounted to 9.45 ± 0.39.
In the case of “TTATATAACATTATTTGTACATATAAAATATGGATG [XGTACX_site8526]” it was 8.49 ± 0.39.
In the case of “AAAAAAAATTTATGGGGTACATATTATAATATTATA [XGTACX_site3395]” it was 8.73 ± 0.24; in that of “TATATAACCTATAGCACACATATATAATATATATTA [CACACA_site1834]”, 8.82 ± 0.35.
In the case of “TTCTATTCAAATGCAAAATTATTAAATAAAAAATAA [GTGCAC_negctrl_site708]” it was 8.31 ± 0.43; in that of “TTATTTTTTTTAAATTGTACAAGGAACAGTGAAAAA [XGTACX_site4380]”, 8.34 ± 0.41; in that of “TAAATGTCTTCAATGAAGTGGAAATGCTGTTATATA [CACACA_negctrl_site1155]”, 8.54 ± 0.31.
In the case of TTTGTGTGTACGCGTGTGCACATTTTTTTTTTTTTT, the “gcPBM binding intensity (ln)” value was found to be 9.33 ± 0.28.
In the case of “AAAAAAAATTTTAATTGTACAAAAAAAAAAAATATA [XGTACX_site2259]” it was 8.46 ± 0.66.
In the case of “TATATATGGGTAACCTTTTTTTTTTTTTTTCGAACA [CACACA_negctrl_site1303]” it was 8.36 ± 0.52; in that of “GGAAAATATGTTTGTGTGCACAGCTAGCTATTTGTA [GTGCAC_site9637]”, 9.27 ± 0.26.
In the case of “AATTTTTTTTGTCTCTGTACTTATAAAATATATATG [XGTACX_site4742]” it was 8.77 ± 0.43.
Consider “TTTTTTTTTTTCAAGCGTACAAAAAATATATTTAAA [XGTACX_site5327]”, for which the “gcPBM binding intensity (ln)” value worked out at 8.2 ± 0.45.
Take “AAATAAATTGATTCAACACACACATATGTAGGAAGT [CACACA_site9068]”: the “gcPBM binding intensity (ln)” value was 9.4 ± 0.37.
In the case of TGCAATTTAATATGAGTGCATATATTGAGAAAATAC, the “gcPBM binding intensity (ln)” value worked out at 8.73 ± 0.44.
To “AAAGAAATTATTTGTTGTACATATGTTATTTTTTTT [XGTACX_site7570]” belongs 8.8 ± 0.47; to “AAGGATATAACATACACACACACACCCATATATATA [CACACA_site4142]”, 10.08 ± 0.099; to “TAAAACCTTTAAAATACATGCAGCATATATAAGTAA [TGCATGCA_site181]”, 8.76 ± 0.42.
To “ATATCATGTTAAGATTGTACATATATATAATATATA [XGTACX_site7626]” belongs 8.64 ± 0.42.
To “AATAAATTGGTATGTTGTACAAAGTAACCATCGATT [XGTACX_site2823]” belongs 8.9 ± 0.43; to “ATTCATAATTTATTATGTACATATATATAATATATT [XGTACX_site1711]”, 8.71 ± 0.4; to “AAATAACAAATTTTTAAAATGTATATATATATATAT [TGCATGCA_negctrl_site219]”, 9.51 ± 0.12.
Regarding “TTTTAAATTTAATTTACACACTTTTCATAGCATTGA [CACACA_site3794]”, the “gcPBM binding intensity (ln)” value is 8.77 ± 0.46.
To “TTCTATTCACATTTTACACACGTCCATCGCATTTTA [CACACA_site3453]” belongs 9.44 ± 0.46.
As to “ATTGTGCTCATCAGCACACACAACATCATGTAATAA [CACACA_site1863]”, the “gcPBM binding intensity (ln)” value came to 9.13 ± 0.42.
To “TTATATTTATAAAATTGTATACCCCTTCTAACTTTC [CACACA_negctrl_site250]” belongs 8.59 ± 0.38; to “TATATATATGGTTTAACACACGAGATAAAAGTATAT [CACACA_site2867]”, 8.94 ± 0.47.
Consider “TATATGGTATGTATTACACACATATCACATATAGAT [CACACA_site7426]”, for which the “gcPBM binding intensity (ln)” value was 9.13 ± 0.26.
As to “TATATATATATATAATGTACTTATATTTTTTTGAGG [XGTACX_site2638]”, the “gcPBM binding intensity (ln)” value is 9.02 ± 0.54.
To “TTAATTAAAACGAATACACACATAAATATGTAAAAG [CACACA_site6707]” belongs 9.16 ± 0.35; to “ATATGTATAAGTATGTATATTTATTTATACTTATGT [GTGCAC_negctrl_site221]”, 8.88 ± 0.37; to “AAAAAAAAAAAAAAAAGTACATATATATATTTATAT [XGTACX_site5893]”, 8.62 ± 0.36.
